The source of these data is the supplement of paper PMC10126150.

Values marked as one replicate rest on one cluster of the flow cell; about a third of the high ones do not repeat.
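Also: ATP exposure 15 min at 22 °C before imaging.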

This data set concerns ATP. Briefly: switch fluorescence ratio, 500 uM ATP over buffer (Cy3 cluster intensity, sum of 5 cycles each) (fold (ratio)); higher = stronger signal-on switching upon ATP binding; sequences stand for … in TCGTCGGCAGCGTCAGATGTGTATAAGAGACAGTTTTTTTTTTTTTTTTTTTTTTTTT…TC. The note with it: aptamer strand: ATP DNA aptamer (quencher-CACCTGGGGGAGTATTGCGGAGGAAGG + anchor), 100 nM annealed; ATP concentration: 500 uM; one replicate. The gist of the method:
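Five buffer/ATP imaging cycles were run on Cy3-labelled switching-strand clusters on a modified Illumina MiSeq flow-cell, with NaOH stripping and re-annealing between cycles. In each cycle, clusters annealed to 100 nM quencher-labelled ATP aptamer were imaged in selection buffer, then after 15 min with 500 uM ATP at 22 °C. Per cluster, the fluorescence ratio is summed target-cycle over summed buffer-cycle Cy3 intensity, averaged per switch-domain sequence. Only clusters within 100-1000 RFU were kept.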
CCACATTGCG: the switch fluorescence ratio stood at 1.01. Under TTGGATATCT stands 1.02; under CAATAATACC, 1.08. To GCAATTAAC belongs 4.14; to AATTCGTGC, 1.04.

In the case of TATTGTCCAA, the switch fluorescence ratio stood at 0.967. In the case of CAATCTCGGT, the switch fluorescence ratio amounted to 0.997. Under AAAAGCTGCG stands 0.976. To GCCGCCGCGC belongs 1.38; to GTTAACCCAG, 0.973; to GATTTGTCTA, 0.952.

Turning to CGGAGAACTC, the switch fluorescence ratio was 1.09. Under AGTTTCATTG stands 0.983; under AGTTCATGGT, 1.02.

For the sequence ACTAGCACTT, the switch fluorescence ratio amounted to 1.15. Under GCCGAGCATC stands 1.52; under ACAAATGGGC, 1.03. To CAACACATCC belongs 1.08. Take ACATTGAATA: the switch fluorescence ratio was 1.05.

For CTCCGGTTAA, the switch fluorescence ratio stood at 4.4. To AGACTTGGGC belongs 0.943. In the case of ACTCACAAGA, the switch fluorescence ratio is 1.31. Take ACGTGGTAAC: the switch fluorescence ratio was found to be 1.04. With GATAAAATCT, the switch fluorescence ratio worked out at 1.05.

Take TCCTGTAGAC: the switch fluorescence ratio stood at 1.32. Under AAAGACTAA stands 0.988; under TGCAGATGTC, 0.948; under CGGCTGACTA, 0.984. Under TCGTCAAATG stands 0.994; under GTTAGCGGAG, 1.02; under AGGGGAACGA, 0.963. To CACTGACCCC belongs 1.26. For TGAATATGTC, the switch fluorescence ratio turned out to be 0.98. As to CTGACGGAAC, the switch fluorescence ratio turned out to be 4.43. To GTTGCTTAGG belongs 1.03; to CACTGTGTCG, 1.09. Under CGGGGACAGG stands 0.965; under TAGTACCTTA, 1.08. To AGCGACTCGT belongs 1; to TTGTGCCTTT, 1.04; to AAAGACGTCG, 1.02. Regarding TTAGTAAAGT, the switch fluorescence ratio amounted to 0.991. To CAAAAGGATG belongs 0.965; to ATAGCGTCGA, 1.04. Consider ACCGGTGACC, for which the switch fluorescence ratio stood at 1.07. To CAAGCAAGAG belongs 3.33. For the sequence TAGCAAAAAA, the switch fluorescence ratio was found to be 1.08.

For the sequence TTTTCATCTT, the switch fluorescence ratio was found to be 1.01. Take TCGCATCTGT: the switch fluorescence ratio is 1.05. Under GTAATTAGTA stands 1; under AGAGGTTAGT, 1.01. To TTGGATCTTG belongs 0.978; to TCTCACCTGC, 1.06. Regarding AGAATGCGCG, the switch fluorescence ratio was 1.06. Regarding ACCCGTTCCC, the switch fluorescence ratio was found to be 1.02.

As for TTCACCCGAG, the switch fluorescence ratio stood at 1.18. As for TCGGTCCTAT, the switch fluorescence ratio amounted to 1.01. To CGTATATTT belongs 1.02. To CGCATACGTG belongs 1.53; to GTTAGGCGGG, 1.14. To AAGATGCCAG belongs 1.02; to GGACAAGGTG, 1.06; to CGCCAATAGT, 2.5. With ACCCTCTAGC, the switch fluorescence ratio was 1.08.

Consider TAATGTGTCA, for which the switch fluorescence ratio came to 0.997. To AAGTGAGCAC belongs 1.03; to ACGATTATAT, 1.03. Under TGATGTCCCC stands 0.985; under ACAACGCACT, 1.81. In the case of AAAGTCTGCC, the switch fluorescence ratio worked out at 0.954. To TCACACAACG belongs 1.23; to AAATAAGTTT, 1.02.

As for CCAAGCAAAT, the switch fluorescence ratio is 4.44. To CGAAGGTACG belongs 0.945; to GTTTGCGGGA, 0.952; to CTTATTGACG, 0.969. As to CGGCAGGACG, the switch fluorescence ratio is 0.981. Under CAACCAGGGA stands 1.5; under GAGAATCATT, 0.999; under ATAATATGAA, 0.948. Under CGGCCTACGG stands 0.942. As to CGAGGGGTAT, the switch fluorescence ratio was determined as 2.54. On to TCAAGTGATG, for which the switch fluorescence ratio is 0.966. With ATGGTTATTT, the switch fluorescence ratio turned out to be 1.05.

For TACAGGCAGA, the switch fluorescence ratio was 1.01. Under GTTTCGGTCG stands 0.92. To TTGGATTCAC belongs 1.01; to CATGTGCAA, 4.23; to ATCAACCAAT, 1.05. Under CGCTAGCCCT stands 1.04. For CGTGAGACGG, the switch fluorescence ratio was found to be 1.01. Under CAGGTATAGT stands 1; under GCTTGAGTCC, 1.01; under AATGTATCTG, 0.99.

As for CCTCAATTTC, the switch fluorescence ratio was found to be 2.76.

As to CGGTGCAGTA, the switch fluorescence ratio was determined as 0.997. To TACGTGGTC belongs 1.02; to TGGCCGTTTT, 1.06; to TATCGTACGT, 0.956. As to GTGGGAATCC, the switch fluorescence ratio came to 0.979. Turning to AATGATAGGA, the switch fluorescence ratio amounted to 0.996.

Turning to AGATAATGAT, the switch fluorescence ratio is 0.979. To AATTCAGGAA belongs 0.978. Take GATATGTTCG: the switch fluorescence ratio is 1.01. To TAGGAATCA belongs 0.977. To GTGGTACTT belongs 0.966; to AATTATGAGC, 1.08.

Turning to TGGCTTACAC, the switch fluorescence ratio came to 1.04. Under CGTTTGCTAG stands 0.98; under TTCGCTATA, 1.57. On to AATTCAGCGT, for which the switch fluorescence ratio stood at 0.946. As for TTTGGCCTGT, the switch fluorescence ratio turned out to be 1.06. Under CAGTTGTGCG stands 1; under GCCCGCTAAA, 1.12; under TGCGGATTTG, 1.01. On to CGGCGACGCT, for which the switch fluorescence ratio was 1.04. Turning to TAAATCGG, the switch fluorescence ratio is 0.976. Under TAATAACAAC stands 0.985; under AGTGTAGTTT, 0.981. Regarding AAGGACGGGA, the switch fluorescence ratio amounted to 1.05.
